The values that follow come from article PMC9911399, “Two distinct binding modes provide the RNA-binding protein RbFox with extraordinary sequence specificity”.

Sequences and labels used below:
B1: AACCAUC (DNA:RNA)
RNA: GGGAGACCGGAAUUCAGAUUGUCCAACCAUCUUAAAUCCCGUCGUAGCCACCA
DNA 1: CAATCTGAATTCCGGTCTCCC
DNA 2: TGGTGGCTACGACGGGATT
B2: UGAACAC (DNA:RNA)
RNA: B1 RNA with A25U, A26G, C27A, C28A, A29C, U30A
DNA 1: CAATCTGAATTCCGGTCTCCC
DNA 2: TGGTGGCTACGACGGGATT
B3: ACCCAAU (DNA:RNA)
RNA: B1 RNA with A26C, U30A, C31U
DNA 1: CAATCTGAATTCCGGTCTCCC
DNA 2: TGGTGGCTACGACGGGATT
B4: AUUUGGC (DNA:RNA)
RNA: B1 RNA with A26U, C27U, C28U, A29G, U30G
DNA 1: CAATCTGAATTCCGGTCTCCC
DNA 2: TGGTGGCTACGACGGGATT
B5: GUCAGCG (DNA:RNA)
RNA: B1 RNA with A25G, A26U, C28A, A29G, U30C, C31G
DNA 1: CAATCTGAATTCCGGTCTCCC
DNA 2: TGGTGGCTACGACGGGATT
B6: CGCCCUG (DNA:RNA)
RNA: B1 RNA with A25C, A26G, A29C, C31G
DNA 1: CAATCTGAATTCCGGTCTCCC
DNA 2: TGGTGGCTACGACGGGATT
B7: CAUUUGA (DNA:RNA)
RNA: B1 RNA with A25C, C27U, C28U, A29U, U30G, C31A
DNA 1: CAATCTGAATTCCGGTCTCCC
DNA 2: TGGTGGCTACGACGGGATT
B8: AACAUAC (DNA:RNA)
RNA: B1 RNA with C28A, A29U, U30A
DNA 1: CAATCTGAATTCCGGTCTCCC
DNA 2: TGGTGGCTACGACGGGATT
B9: UAAGACA (DNA:RNA)
RNA: B1 RNA with A25U, C27A, C28G, U30C, C31A
DNA 1: CAATCTGAATTCCGGTCTCCC
DNA 2: TGGTGGCTACGACGGGATT
B10: GACAGUU (DNA:RNA)
RNA: B1 RNA with A25G, C28A, A29G, C31U
DNA 1: CAATCTGAATTCCGGTCTCCC
DNA 2: TGGTGGCTACGACGGGATT
B11: UGCUUUU (DNA:RNA)
RNA: B1 RNA with A25U, A26G, C28U, A29U, C31U
DNA 1: CAATCTGAATTCCGGTCTCCC
DNA 2: TGGTGGCTACGACGGGATT
B12: CGAGAAA (DNA:RNA)
RNA: B1 RNA with A25C, A26G, C27A, C28G, U30A, C31A
DNA 1: CAATCTGAATTCCGGTCTCCC
DNA 2: TGGTGGCTACGACGGGATT
B13: CACCAGA (DNA:RNA)
RNA: B1 RNA with A25C, U30G, C31A
DNA 1: CAATCTGAATTCCGGTCTCCC
DNA 2: TGGTGGCTACGACGGGATT
B14: UCCUCUU (DNA:RNA)
RNA: B1 RNA with A25U, A26C, C28U, A29C, C31U
DNA 1: CAATCTGAATTCCGGTCTCCC
DNA 2: TGGTGGCTACGACGGGATT
B15: UGUGAUG (DNA:RNA)
RNA: B1 RNA with A25U, A26G, C27U, C28G, C31G
DNA 1: CAATCTGAATTCCGGTCTCCC
DNA 2: TGGTGGCTACGACGGGATT
B16: UAUGAAG (DNA:RNA)
RNA: B1 RNA with A25U, C27U, C28G, U30A, C31G
DNA 1: CAATCTGAATTCCGGTCTCCC
DNA 2: TGGTGGCTACGACGGGATT
B17: GCACCUC (DNA:RNA)
RNA: B1 RNA with A25G, A26C, C27A, A29C
DNA 1: CAATCTGAATTCCGGTCTCCC
DNA 2: TGGTGGCTACGACGGGATT
B18: CACACGG (DNA:RNA)
RNA: B1 RNA with A25C, C28A, A29C, U30G, C31G
DNA 1: CAATCTGAATTCCGGTCTCCC
DNA 2: TGGTGGCTACGACGGGATT
B19: UAACUAA (DNA:RNA)
RNA: B1 RNA with A25U, C27A, A29U, U30A, C31A
DNA 1: CAATCTGAATTCCGGTCTCCC
DNA 2: TGGTGGCTACGACGGGATT
B20: CUUACCU (DNA:RNA)
RNA: GGGAGACCGGAAUUCAGAUUGUCCCUUACCUUUAAAUCCCGUCGUAGCCACCA
DNA 1: CAATCTGAATTCCGGTCTCCC
DNA 2: TGGTGGCTACGACGGGATT
B21: AUGUAAC (DNA:RNA)
RNA: B1 RNA with A26U, C27G, C28U, U30A
DNA 1: CAATCTGAATTCCGGTCTCCC
DNA 2: TGGTGGCTACGACGGGATT
B22: GUGUUUA (DNA:RNA)
RNA: B1 RNA with A25G, A26U, C27G, C28U, A29U, C31A
DNA 1: CAATCTGAATTCCGGTCTCCC
DNA 2: TGGTGGCTACGACGGGATT
B23: UAUUUGA (DNA:RNA)
RNA: B1 RNA with A25U, C27U, C28U, A29U, U30G, C31A
DNA 1: CAATCTGAATTCCGGTCTCCC
DNA 2: TGGTGGCTACGACGGGATT
B24: UAGCGUC (DNA:RNA)
RNA: B1 RNA with A25U, C27G, A29G
DNA 1: CAATCTGAATTCCGGTCTCCC
DNA 2: TGGTGGCTACGACGGGATT
B25: GGCCAGC (DNA:RNA)
RNA: B1 RNA with A25G, A26G, U30G
DNA 1: CAATCTGAATTCCGGTCTCCC
DNA 2: TGGTGGCTACGACGGGATT
B26: GCCAUCC (DNA:RNA)
RNA: B1 RNA with A25G, A26C, C28A, A29U, U30C
DNA 1: CAATCTGAATTCCGGTCTCCC
DNA 2: TGGTGGCTACGACGGGATT
B27: CUGAGCG (DNA:RNA)
RNA: B20 RNA with U27G, C29G, U31G
DNA 1: CAATCTGAATTCCGGTCTCCC
DNA 2: TGGTGGCTACGACGGGATT
B28: CGCGCCC (DNA:RNA)
RNA: B20 RNA with U26G, U27C, A28G, U31C
DNA 1: CAATCTGAATTCCGGTCTCCC
DNA 2: TGGTGGCTACGACGGGATT
B29: CGCCAAG (DNA:RNA)
RNA: B1 RNA with A25C, A26G, U30A, C31G
DNA 1: CAATCTGAATTCCGGTCTCCC
DNA 2: TGGTGGCTACGACGGGATT
B30: GUAUGAC (DNA:RNA)
RNA: B1 RNA with A25G, A26U, C27A, C28U, A29G, U30A
DNA 1: CAATCTGAATTCCGGTCTCCC
DNA 2: TGGTGGCTACGACGGGATT
B31: GCUGAGU (DNA:RNA)
RNA: B20 RNA with C25G, U26C, A28G, C29A, C30G
DNA 1: CAATCTGAATTCCGGTCTCCC
DNA 2: TGGTGGCTACGACGGGATT

Substitutions are numbered along the chain they refer to; changes in the protein carry UniProt numbers. The list shows a part of the results.

The experiment concerns the target T1, RBFOX1 RRM (Homo sapiens, UniProt Q9NWB1 109-208).
T1 sequence: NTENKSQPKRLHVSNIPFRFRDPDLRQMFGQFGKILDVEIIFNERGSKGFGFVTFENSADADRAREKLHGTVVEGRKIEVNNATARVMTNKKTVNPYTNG
The experiment is described as follows: EMSA; HiTS-Eq, 1 nM pool, 10 min; buffer printed only for the single-RNA assays: 10 mM Tris pH 7.5, 150 mM NaCl, 3.4 mM EDTA, 0.001% NP-40, 30 C. Particulars: tags: His6 N-terminal (pET28a); label: 5' 32P. The method, boiled down:
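Purified RbFox RRM, wild type or mutant, was incubated for 10 min in 50 µL with 1 nM of a 5′-radiolabelled RNA pool carrying 7 randomized nucleotides, whose flanks were annealed to DNA oligonucleotides, over a series of increasing protein concentrations. Unbound RNA was resolved on 8% native PAGE, cut out, reverse-transcribed, barcoded by PCR and sequenced on an Illumina HiSeq 2500. Relative association constants were derived from changes in read counts for each RNA species versus the control reaction and normalised to the cognate motif.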
In the case of B1, the binding signal was 0.00115 KA relative to UGCAUGU.

With B2, the binding signal was 0.00931 KA relative to UGCAUGU.

B3: the binding signal is 0.000842 KA relative to UGCAUGU.

On to B4, for which the binding signal was 0.0106 KA relative to UGCAUGU.

Turning to B5, the binding signal is 0.0134 KA relative to UGCAUGU.

In the case of B6, the binding signal was 0.0181 KA relative to UGCAUGU.

Regarding B7, the binding signal is 0.0105 KA relative to UGCAUGU.

Take B8: the binding signal is 0.00019 KA relative to UGCAUGU.

B9: the binding signal is 0.00359 KA relative to UGCAUGU.

Take B10: the binding signal is 0.00923 KA relative to UGCAUGU.

Turning to B11, the binding signal is 0.0211 KA relative to UGCAUGU.

For B12, the binding signal is 0.00724 KA relative to UGCAUGU.

On to B13, for which the binding signal was 0.00544 KA relative to UGCAUGU.

As to B14, the binding signal was 0.00411 KA relative to UGCAUGU.

Consider B15, for which the binding signal was 0.0303 KA relative to UGCAUGU.

As to B16, the binding signal was 0.0167 KA relative to UGCAUGU.

As for B17, the binding signal was 0.0127 KA relative to UGCAUGU.

As to B18, the binding signal is 0.00433 KA relative to UGCAUGU.

On to B19, for which the binding signal is 0.00462 KA relative to UGCAUGU.

With B20, the binding signal is 0.00249 KA relative to UGCAUGU.

In the case of B21, the binding signal is 0.0041 KA relative to UGCAUGU.

Regarding B22, the binding signal was 0.00869 KA relative to UGCAUGU.

With B23, the binding signal is 0.0208 KA relative to UGCAUGU.

Take B24: the binding signal is 0.0144 KA relative to UGCAUGU.

Consider B25, for which the binding signal is 0.00861 KA relative to UGCAUGU.

On to B26, for which the binding signal was 0.00701 KA relative to UGCAUGU.

Take B27: the binding signal was 0.0193 KA relative to UGCAUGU.

As for B28, the binding signal was 0.00766 KA relative to UGCAUGU.

Take B29: the binding signal is 0.00625 KA relative to UGCAUGU.

Turning to B30, the binding signal was 0.0127 KA relative to UGCAUGU.

With B31, the binding signal is 0.0202 KA relative to UGCAUGU.
